# From PubChem BioAssay (Tox21)
# “And” between values parts separate entries of the source, which are not always exact repeats. Equal values may be shown once. The shares of active, inactive and inconclusive entries below differ from those in the screen. For some assays here: Potencies of inconclusive entries are doubtful fits and often do not repeat. Some structures have more than one record in an assay (separate samples or runs), and their calls can disagree. The source made the active and inactive calls. Unless noted, calls follow the shape of the dose curve; as a rule, active = well fitted curve in the direction sought with a large enough effect in the repeat runs; inconclusive = weak or mixed curves; inactive = no such curve, though single readings can be large; an effect the other way counts as inactive or inconclusive.
# Experiments:
# [1] = qHTS assay to identify small molecule antagonists of the androgen receptor (AR) signaling pathway using the MDA cell line in the presence of 0.5 nM R1881 - cell viability counter screen (AID 1259242); also: nearly all actives have a fitted effect of over 45% in size; also: potency is read from the fitted curve at half-maximal effect
# Method in brief: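 Live-cell protease fluorescence, CellTiter-Fluor, 30 min at 37C. Cells: MDA-kb2, 3,000/well, preincubated 5 hr. Compounds plus 0.5 nM R1881 final, 16 hr, 37C, 0% CO2.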
# [2] = qHTS assay to identify small molecule agonists of the sonic hedgehog signaling (Shh) pathway - cell viability counter screen (AID 1259366); also: potency is read from the fitted curve at half-maximal effect; nearly all actives have a fitted effect of over 50% in size
# Method in brief: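 Same-well cytotoxicity read. Gli1-Luc reporter 3T3 cells; compounds 24hr, 37C/5% CO2; CellTiter-Fluor fluorescence.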
# [3] = qHTS assay to identify small molecule antagonists of the sonic hedgehog signaling (Shh) pathway - cell viability counter screen (AID 1259367); also: potency is read from the fitted curve at half-maximal effect; nearly all actives have a fitted effect of over 55% in size
# Method in brief: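 Viability was read by CellTiter-Fluor fluorescence in the same wells, reagent added 23 hr into compound treatment and incubated 1 hr at 37C. The 3T3 Gli1-Luc reporter cells (2,000/well) received conditioned medium after compound and ran 24 hr.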
# [4] = qHTS assay to identify small molecule antagonists of the sonic hedgehog signaling (Shh) pathway (AID 1259369; calls by dose curve; also: potency is read from the fitted curve at half-maximal effect; nearly all actives have a fitted effect of over 45% in size)
# Method in brief: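 Luminescence readout: firefly Luc under Gli1 response element in 3T3Gli1-Luc cells (NIH/3T3 clone). Antagonist mode, stimulation by conditioned medium; compound exposure 24hr at 37 C, 5% CO2.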
# [5] = target: Estrogen receptor beta (Homo sapiens) (UniProt Q92731); experiment: qHTS assay to identify small molecule agonists of the estrogen receptor beta (ER-beta) signaling pathway (AID 1259377; active = well fitted activation curve with a large enough effect in the signal ratio in the repeat runs, not every such curve was filed as active; inconclusive = weak or mixed curves, or effect the other way; the % refers to the signal ratio; also: potency is read from the fitted curve at half-maximal effect); conditions: ER-beta-UAS-bla HEK293T, beta-lactamase FRET ratio, 16 h; activation: at 92.4 µM (top of the series) unless noted
# Method in brief: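 Read-out: beta-lactamase FRET fluorescence. Cell line: ER-beta-UAS-bla HEK293T in 2% charcoal-stripped FBS. Exposure: 16 hr at 37C. Substrate step: 2 h at room temperature.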
# [6] = target: Estrogen receptor beta (Homo sapiens) (UniProt Q92731); experiment: qHTS assay to identify small molecule antagonists of the estrogen receptor beta (ER-beta) signaling pathway (AID 1259378; active = well fitted inhibition curve with a large enough effect in the signal ratio in the repeat runs, not every such curve was filed as active; inconclusive = weak or mixed curves, or effect the other way; inactive = no such curve, though single readings can be large or run the other way; the % refers to the signal ratio; also: potency is read from the fitted curve at half-maximal effect; as to activity, negative = inhibition: % is scaled to controls: 0 for no effect and ±100 for the full control effect); conditions: ER-beta-UAS-bla HEK293T, beta-lactamase FRET ratio, 16 h; activity, negative = inhibition: at 92.4 µM (top of the series) unless noted
# Method in brief: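 Antagonist mode: compounds added to beta-lactamase reporter HEK293T ER-beta-UAS cells stimulated with E2 (1nM final), 16 hr at 37C. LiveBLAzer B/G FRET substrate, 2 hours room temperature, fluorescence read-out.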
# [7] = qHTS assay to identify small molecule agonists of the androgen receptor (AR) signaling pathway in the presence of an antagonist - cell viability counter screen (AID 1259379); also: potency is read from the fitted curve at half-maximal effect; nearly all actives have a fitted effect of over 25% in size
# Method in brief: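 Viability counter screen: CellTiter-Fluor fluorescence, measured in the same wells as the luciferase read-out. MDA-kb2 cells, 3,000/well, with nilutamide at 3.0uM final and compounds at 15 concentrations, 16 hr at 37C, 0% CO2.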
# [8] = qHTS assay to identify small molecule agonists of the estrogen receptor beta (ER-beta) signaling pathway - cell viability counter screen (AID 1259380); also: potency is read from the fitted curve at half-maximal effect; nearly all actives have a fitted effect of over 30% in size
# Method in brief: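 Luminescence read-out (CellTiter-Glo, 30 min, room temp) taken in the same wells as the beta-lactamase reporter assay; ER-beta-UAS-bla HEK293T cells exposed to DMSO-dissolved compounds for 16 hr at 37C in 2% charcoal-stripped FBS medium.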
# [9] = qHTS assay to identify small molecule antagonists of the estrogen receptor beta (ER-beta) signaling pathway - cell viability counter screen (AID 1259382); also: potency is read from the fitted curve at half-maximal effect; nearly all actives have a fitted effect of over 55% in size
# Method in brief: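 Luminescent ATP read-out (CellTiter-Glo, 30 min, RT) taken in the same wells as the bla reporter assay. HEK293T ER-beta-UAS-bla cells in 2% charcoal-stripped FBS were exposed to compounds with 1nM E2 for 16 hr at 37C.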
# [10] = qHTS assay to identify small molecule HDAC inhibitors - cell viability counter screen (AID 1259365); also: potency is read from the fitted curve at half-maximal effect; nearly all actives have a fitted effect of over 50% in size
# Method in brief: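 After overnight seeding at 1,500 cells per well, wild-type HCT-116 cultures took up compounds in DMSO for 2hr at 37 C. Viable cell content came from luminescence with CellTiter-Glo.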
# [11] = qHTS assay to identify small molecule agonists of the estrogen receptor alpha (ER-alpha) signaling pathway in the presence of an antagonist - cell viability counter screen (AID 1259386);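 also: potency is read from the fitted curve at half-maximal effect; cells exposed to compounds for 22 h at 37 °C before the viability read; nearly all actives have a fitted effect of over 30% in size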
# Method in brief: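 Read-out: CellTiter-Fluor fluorescence after 1hr reagent incubation, measured in the same wells as the luciferase readout. VM7Luc4E2 cells were exposed to 15 compound concentrations with 10.0nM ICI-182,780 for 22hr at 37C.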
# [12] = target: Thyrotropin receptor (Homo sapiens) (UniProt P16473); experiment: qHTS assay to identify small molecule antagonists of the thyroid stimulating hormone receptor (TSHR) signaling pathway (AID 1259385; calls by dose curve; also: % is scaled to controls: 0 for no effect and ±100 for the full control effect; nearly all actives have a fitted effect of over 20% in size); conditions: TSHR-HEK293 cAMP HTRF, TSH-stimulated antagonist mode; activity change, negative = inhibition: at 92.4 µM (top of the series) unless noted
# Method in brief: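 Antagonist mode: compound-treated TSHR-expressing HEK293 cells were stimulated with 1.5 ng/mL TSH (final) in presence of Ro20-1724 for 30 min at RT. HTRF cAMP detection after 1 h; each compound tested at 15 concentrations, triplicate.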
# [13] = target: Estrogen receptor (Homo sapiens) (UniProt P03372); experiment: qHTS assay to identify small molecule agonists of the estrogen receptor alpha (ER-alpha) signaling pathway in the presence of an antagonist (AID 1259383; calls by dose curve; also: potency is read from the fitted curve at half-maximal effect; nearly all actives have a fitted effect of over 15% in size)
# Method in brief: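 Luciferase luminescence (ONE-Glo, 30min at room temperature) measured in VM7Luc4E2 cells after 22hr compound exposure at 15 concentrations, with 10.0nM ICI-182,780 final present; cells express endogenous ER-alpha and carry four EREs upstream of luciferase.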
# Tags tell the direction and shape of the fitted curve or compound fluorescence and quenching.
# Chain of UniProt Q92731 (Q92731 whole entry, looked up): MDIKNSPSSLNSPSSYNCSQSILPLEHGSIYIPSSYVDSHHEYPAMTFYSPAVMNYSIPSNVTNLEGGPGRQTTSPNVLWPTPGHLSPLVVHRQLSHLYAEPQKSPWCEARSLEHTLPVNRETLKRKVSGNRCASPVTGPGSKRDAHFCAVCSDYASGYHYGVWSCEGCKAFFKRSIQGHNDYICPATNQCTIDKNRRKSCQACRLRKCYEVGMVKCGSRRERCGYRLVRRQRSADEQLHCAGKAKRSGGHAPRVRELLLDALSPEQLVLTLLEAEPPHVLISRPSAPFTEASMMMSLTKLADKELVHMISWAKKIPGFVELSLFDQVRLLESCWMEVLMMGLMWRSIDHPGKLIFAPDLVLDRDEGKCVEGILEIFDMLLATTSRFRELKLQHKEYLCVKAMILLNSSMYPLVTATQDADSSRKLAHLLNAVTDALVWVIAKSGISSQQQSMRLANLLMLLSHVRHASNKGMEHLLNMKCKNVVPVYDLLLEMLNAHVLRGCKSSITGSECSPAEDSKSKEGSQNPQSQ
# Chain of UniProt P03372 (P03372 whole entry, looked up): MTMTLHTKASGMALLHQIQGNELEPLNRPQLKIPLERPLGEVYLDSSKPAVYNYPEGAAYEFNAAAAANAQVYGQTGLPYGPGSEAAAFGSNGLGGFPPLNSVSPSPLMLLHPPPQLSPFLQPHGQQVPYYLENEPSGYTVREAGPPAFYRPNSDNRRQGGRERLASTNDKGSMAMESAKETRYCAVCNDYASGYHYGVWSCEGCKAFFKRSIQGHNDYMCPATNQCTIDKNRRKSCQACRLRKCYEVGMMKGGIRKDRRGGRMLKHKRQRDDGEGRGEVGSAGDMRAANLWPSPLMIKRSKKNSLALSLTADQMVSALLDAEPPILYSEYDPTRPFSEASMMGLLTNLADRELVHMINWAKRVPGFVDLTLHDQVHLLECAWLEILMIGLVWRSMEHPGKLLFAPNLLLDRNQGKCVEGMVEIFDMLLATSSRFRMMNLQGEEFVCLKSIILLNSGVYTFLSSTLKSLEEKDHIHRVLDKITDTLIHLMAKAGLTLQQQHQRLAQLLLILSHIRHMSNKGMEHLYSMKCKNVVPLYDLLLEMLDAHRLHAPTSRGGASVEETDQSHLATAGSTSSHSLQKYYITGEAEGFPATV
# Chain of UniProt P16473 (P16473 whole entry, looked up): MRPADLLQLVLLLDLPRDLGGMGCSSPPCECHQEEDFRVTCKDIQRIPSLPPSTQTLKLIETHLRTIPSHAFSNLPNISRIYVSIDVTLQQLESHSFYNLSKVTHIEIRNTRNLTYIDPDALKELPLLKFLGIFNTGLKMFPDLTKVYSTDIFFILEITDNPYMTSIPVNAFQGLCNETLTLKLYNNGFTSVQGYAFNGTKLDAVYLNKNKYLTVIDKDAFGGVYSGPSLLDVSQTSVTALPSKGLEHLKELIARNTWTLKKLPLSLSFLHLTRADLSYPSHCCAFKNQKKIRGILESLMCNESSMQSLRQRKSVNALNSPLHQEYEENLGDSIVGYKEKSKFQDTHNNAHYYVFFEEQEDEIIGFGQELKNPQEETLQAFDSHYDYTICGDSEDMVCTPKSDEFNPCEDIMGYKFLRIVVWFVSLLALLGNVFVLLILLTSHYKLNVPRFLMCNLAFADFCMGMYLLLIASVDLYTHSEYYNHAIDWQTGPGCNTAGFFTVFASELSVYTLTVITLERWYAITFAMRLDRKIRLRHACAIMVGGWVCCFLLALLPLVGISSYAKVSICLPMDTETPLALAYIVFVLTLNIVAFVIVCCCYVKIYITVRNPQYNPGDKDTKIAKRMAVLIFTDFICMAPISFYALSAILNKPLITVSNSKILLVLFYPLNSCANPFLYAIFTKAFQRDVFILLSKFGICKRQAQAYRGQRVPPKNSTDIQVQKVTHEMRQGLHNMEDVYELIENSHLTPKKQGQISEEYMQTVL
smiles,measurement,setting,value
CC1=C(C(=O)OC(C)C)C(c2cccc([N+](=O)[O-])c2)C(C(=O)OC2CN(C(c3ccccc3)c3ccccc3)C2)=C(N)N1 (centres undefined),Potency,[1],"inconclusive: 29.8 µM [cytotoxic, single point]"
same,Potency,[2],active: 23.7 µM
same,Potency,[3],active: 26.6 µM
same,Potency,[4],active: 29.8 µM
same,Potency,[5],"inconclusive: 29.8 µM [cytotoxic, single point]"
same,Potency,[6],active: 16.8 µM
same,Potency,[7],inconclusive: 33.5 µM [cytotoxic]
same,Potency,[8],active: 29.8 µM
same,Potency,[9],"inconclusive: 33.5 µM [cytotoxic, single point]"
CC1=C(/C=C/C(C)=C/C=C/C(C)=C\C=O)C(C)(C)CCC1,Potency,[1],inactive
same,Potency,[2],"inconclusive: 64.9 µM [cytotoxic, single point]"
same,Potency,[3],"inconclusive: 29 µM [cytotoxic, partial curve, poor fit]"
same,Potency,[6],active: 32.5 µM
same,Potency,[7],"inconclusive: 57.9 µM [cytotoxic, single point]"
same,Potency,[9],"inconclusive: 46 µM [cytotoxic, partial curve]"
O=c1n(CC2CO2)c(=O)n(CC2CO2)c(=O)n1CC1CO1 (centres undefined),Potency,[1],"inconclusive: 61.1 µM [cytotoxic, partial curve, poor fit]"
same,Potency,[2],inconclusive: 60.8 µM [cytotoxic]
same,Potency,[3],active: 30.5 µM and active: 48.6 µM
same,Potency,[4],active: 963 nM and active: 3.06 µM
same,"activity, negative = inhibition",[6],inconclusive: -42.7%
same,Potency,[7],"inconclusive: 68.2 µM [cytotoxic, single point] and inconclusive: 54.5 µM [cytotoxic, partial curve]"
same,Potency,[8],"inconclusive: 15.4 µM [cytotoxic, partial curve]"
CSc1ccc2c(c1)N(CCC1CCCCN1C)c1ccccc1S2 (centres undefined),Potency,[1],"active: 54.3 µM and inconclusive: 26.6 µM [cytotoxic, partial curve]"
same,Potency,[10],inconclusive: 68.3 µM [cytotoxic]
same,Potency,[4],active: 5.43 µM and active: 11.9 µM
same,Potency,[8],active: 19.3 µM and active: 18.8 µM
same,Potency,[9],active: 15.3 µM and active: 13.3 µM
same,Potency,[11],active: 68.3 µM
[O-][n+]1ccccc1SSc1cccc[n+]1[O-],Potency,[1],active: 0.326 µM
same,Potency,[2],active: 0.13 µM
same,Potency,[4],active: 0.164 µM
same,Potency,[5],inconclusive: 0.184 µM [full curve]
same,Potency,[6],"inconclusive: 0.146 µM [rising, full curve]"
same,Potency,[7],"inconclusive: 14.6 µM [cytotoxic, partial curve, poor fit]"
same,Potency,[8],active: 0.092 µM
same,Potency,[9],active: 0.13 µM
same,"activity change, negative = inhibition",[12],inconclusive: -14.4% [at 19 µM]
same,Potency,[11],active: 8.2 µM
Cc1ccc(O)c2ncccc12,Potency,[1],"inconclusive: 13.3 µM [cytotoxic, full curve]"
same,Potency,[2],active: 1.33 µM
same,Potency,[5],"inconclusive: 16.8 µM [fluorescent, partial curve, poor fit]"
same,Potency,[6],"inconclusive: 3.35 µM [activator, partial curve]"
same,Potency,[8],"inconclusive: 3.35 µM [cytotoxic, full curve]"
same,Potency,[9],"inconclusive: 8.41 µM [cytotoxic, partial curve]"
same,Potency,[12],inactive
O=C(OCC1CCC2OC2C1)C1CCC2OC2C1 (centres undefined),Potency,[1],inactive
same,Potency,[2],"inconclusive: 64 µM [cytotoxic, partial curve] and inconclusive: 48.6 µM [cytotoxic, partial curve]"
same,Potency,[3],"inconclusive: 64 µM [cytotoxic, partial curve] and inconclusive: 61.1 µM [cytotoxic, single point]"
CCCCCCCCCCCCc1ccccc1O,Potency,[1],"inconclusive: 67.7 µM [cytotoxic, single point] and inconclusive: 68.6 µM [cytotoxic, single point]"
same,Potency,[2],active: 60.3 µM and active: 61.1 µM
same,Potency,[3],active: 60.3 µM and active: 61.1 µM
same,Potency,[4],active: 67.7 µM and active: 34.4 µM
same,Potency,[5],"inconclusive: 60.3 µM [falling, partial curve] and inconclusive: 43.3 µM [falling, partial curve]"
same,Potency,[6],"active: 1.35 µM and inconclusive: 68.6 µM [cytotoxic, single point]"
same,Potency,[7],"inconclusive: 67.7 µM [cytotoxic, single point]"
same,Potency,[8],active: 30.2 µM and active: 27.3 µM
same,Potency,[9],active: 47.9 µM and active: 43.3 µM
same,Potency,[13],"inconclusive: 13.5 µM [activator, partial curve] and inconclusive: 13.7 µM [activator, partial curve]"
same,Potency,[11],"inconclusive: 67.7 µM [cytotoxic, single point] and active: 68.6 µM"
